Measurements from PubChem BioAssay AID651820 (National Center for Advancing Translational Sciences (NCATS), 2012).
Among all 340,000 compounds or so, about 12,000 (3.5%) were called active. This list was built around the results that the source calls inconclusive (neither active nor inactive); the mix of calls is not that of the screen. Calls follow the shape of the dose curve; as a rule, active = well fitted inhibition curve with a large enough effect; inconclusive = small, poorly fitted or top-dose-only effect, or another doubt; inactive = no such curve, though single readings can be large or run the other way. No potency is given beside an inconclusive call; the fits are too rough.
Potency is read from the fitted curve at half-maximal effect; tags tell the direction and shape of the fitted curve.

Experiment: qHTS Assay for Inhibitors of Hepatitis C Virus (HCV)
Details: Huh7.5.1 HCVcc-Cre (HCVcc is cell-culture hepatitis C virus) infection, luciferase reporter, 44 h; series mostly up to 41.8 µM
Procedure, shortened: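 Cells seeded at 1,000/well and cultured 4 h, then compounds added followed by HCVcc-Cre virus (~0.5 moi). After 44 h further culture, luciferase substrate was added, plates held 15 min at room temperature, and luminescence read for 15 sec.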
With `O=C(Cn1c(C(=O)N2CCN(C3CCCC3)CC2)cc2sccc21)c1ccccc1` the Potency was inconclusive [inhibitor, partial curve].
With `NC(=O)NC(CCC(=O)O)C(=O)O` (stereo not given) the Potency was inconclusive [inhibitor, full curve, poor fit].
In the case of `CCOC(=O)C1(CCCc2ccccc2)CCN(C(=O)CCCn2cncn2)CC1`, the Potency was inconclusive [inhibitor, single point].
With `O=C1CN(C(=O)c2ccc(Br)o2)C(c2ccc(F)cc2)c2cc(Cl)ccc2N1` (stereo not given) the Potency was inconclusive [inhibitor, single point].
With `CCOC(=O)C1CCCN(C(=O)Cc2ccc(C)cc2)C1` (stereo not given) the Potency was “inactive”.
For `O=C(NCC1CCCO1)c1ccc2[nH]c3c(c2c1)CCCC3` (stereo not given), the Potency was inconclusive [inhibitor, partial curve, poor fit].
For `COc1cc(N/N=C(\C)c2ccc(O)c(C)c2)nc(-c2ccccc2)n1`, the Potency was inconclusive [inhibitor, partial curve].
In the case of `COc1cccc(CNC(=O)CCCn2nc(C)c3c(C)n(-c4ccc(C)cc4)nc3c2=O)c1OC`, the Potency was active: 12.6 µM.
In the case of `O=C(N/N=C/c1ccc(N2CCOCC2)cc1)c1ccncc1`, the Potency was “inactive”.
For `Cc1ccccc1NS(=O)(=O)c1cc(C(=O)NCc2ccco2)ccc1C`, the Potency was inconclusive [inhibitor, single point].
For `CC(C)(C)c1cc(CCC(=O)NCc2ccncc2)cc(C(C)(C)C)c1O`, the Potency was inconclusive [inhibitor, single point].
In the case of `CCOC(=O)c1c(-c2ccc(-c3ccccc3)cc2)csc1NC(=O)CCN1CCOCC1`, the Potency was inconclusive [inhibitor, partial curve].
For `O=[N+]([O-])c1ccc(NCc2ccc3c(c2)OCO3)cc1`, the Potency was inconclusive [inhibitor, partial curve, poor fit].
In the case of `Cc1cccc(Nc2nnc(SCC(=O)Nc3cccc(S(=O)(=O)N4CCCCC4)c3)s2)c1`, the Potency was active: 12.6 µM.
For `CN(CC(=O)Nc1ccc(C(N)=O)cc1)S(=O)(=O)c1ccc2c(c1)OCCO2`, the Potency was “inactive”.
With `Cc1ccnc(NS(=O)(=O)c2ccc(NC(=O)Cc3ccccc3)cc2)n1` the Potency was “inactive”.
With `CCN(CC)C(=O)COc1coc(CN2CCN(c3cccc(Cl)c3)CC2)cc1=O` the Potency was “inactive”.
For `Cc1c(Cl)c([N+](=O)[O-])nn1CC(=O)NCc1ccco1`, the Potency was “inactive”.
With `NC(=O)c1nsc(C(=O)N(c2ccccc2)C(C(=O)NCc2ccc(F)cc2)c2ccc(O)cc2)c1N` (stereo not given) the Potency was inconclusive [inhibitor, single point].
For `O=C(NCc1ccccc1)C12CN(Cc3ccccc3)CC1C(c1cccc([N+](=O)[O-])c1)=NO2` (stereo not given), the Potency was inconclusive [inhibitor, partial curve, poor fit].
In the case of `Cc1ccccc1NCC(=O)N/N=C/C(Br)=C/c1ccccc1`, the Potency was inconclusive [inhibitor, single point].
In the case of `CC1=C(CC/C(C)=N/NC(N)=S)C(C)(C)CCC1`, the Potency was active: 25.1 µM.
For `O=C(Nc1ccc2c(c1)nc1n2CCN(Cc2ccccc2)C1)c1cccs1`, the Potency was inconclusive [inhibitor, single point].
With `O=P(CCc1ccccc1)(c1ccccc1)c1ccccc1` the Potency was “inactive”.
With `N#CC(C(=O)C1CCCCC1)c1nc2ccccc2[nH]1` (stereo not given) the Potency was active: 10 µM.
For `COc1ccc(C(=O)N/N=C(\C)c2ccccn2)cc1OC`, the Potency was inconclusive [inhibitor, partial curve].
In the case of `COc1cccc(-c2nc3ccccc3s2)c1O`, the Potency was inconclusive [inhibitor, single point].
In the case of `COc1ccc2cc(CO)c3cc(OC)c(OC)cc3c2c1`, the Potency was active: 12.6 µM.
With `CCOc1ccc2nc(NC(=O)CN3CCN(CC)CC3)sc2c1` the Potency was “inactive”.
For `O=C(Nc1cc(S(=O)(=O)N2CCOCC2)ccc1N1CCOCC1)C1CCCO1` (stereo not given), the Potency was “inactive”.
With `COc1cc(CNCCc2c[nH]c3ccccc23)cc(Cl)c1OCC(N)=O` the Potency was inconclusive [inhibitor, full curve].
For `CC(=O)Nc1ccc(N2CCCC(C)C2)c([N+](=O)[O-])c1` (stereo not given), the Potency was active: 3.16 µM.
With `COc1ccc(N(CC(=O)NCc2ccc(Cl)cc2)S(=O)(=O)c2c(C)noc2C)cc1` the Potency was “inactive”.
In the case of `O=C(NNC1=Nc2cccc3cccc1c23)c1ccc(Br)cc1`, the Potency was inconclusive [inhibitor, full curve].
For `Cn1nc(C(=O)Nc2nc(-c3ccccn3)cs2)c2ccccc2c1=O`, the Potency was inconclusive [inhibitor, partial curve].
In the case of `Cc1ccc(C(=O)CNc2ccc(C)cc2C)cc1`, the Potency was inconclusive [inhibitor, single point].
For `Clc1ccc(Cn2c(-c3cccnc3Cl)nc3ccccc32)cc1`, the Potency was inconclusive [inhibitor, single point].
With `O=C(c1cn(-c2ccccc2)nc1-c1ccccc1)n1nnc2ccccc21` the Potency was “inactive”.
In the case of `CC(C)(C)C(=O)N1CCN(c2ccc([N+](=O)[O-])cc2Cl)CC1`, the Potency was inconclusive [inhibitor, partial curve].
In the case of `CCOCCCN(C)C1CCN(C(=O)c2oc3ccccc3c2NC(=O)COc2cccc(C)c2)CC1`, the Potency was inconclusive [inhibitor, partial curve].
In the case of `CCOC(=O)c1ccc(NC(=S)NCCCN2CCCC2=O)cc1`, the Potency was inconclusive [inhibitor, single point].
In the case of `O=Cc1cn(-c2ccccc2)nc1-c1cc2ccccc2oc1=O`, the Potency was inconclusive [inhibitor, single point].
In the case of `Cc1ccccc1C(=O)Nc1ccnn1C1CCN(C(C)Cc2ccccc2F)CC1` (stereo not given), the Potency was active: 10 µM.
In the case of `O=C(CSc1nc2cc(S(=O)(=O)N3CCOCC3)ccc2o1)NC1CCCc2ccccc21` (stereo not given), the Potency was inconclusive [inhibitor, partial curve].
For `COc1ccccc1N1CCN(C(=O)C2CCCN(S(=O)(=O)c3ccc(C)cc3)C2)CC1` (stereo not given), the Potency was inconclusive [inhibitor, single point].
